In publication PMC11121837, “Impact of Nitric Oxide-Release Kinetics on Antifungal Activity” (Journal of Fungi, 2024):
Read-outs that look alike come from different tables or passages of the source.

Tested on: A. fumigatus (ATCC 1022) spores
[1] = NO donor (24 h pretreatment of spores) then 5-fluorocytosine
[2] = NO donor (24 h pretreatment of spores) then amphotericin B
[3] = NO donor (24 h pretreatment of spores) then butenafine
[4] = NO donor (24 h pretreatment of spores) then caspofungin
[5] = NO donor (24 h pretreatment of spores) then fluconazole
[6] = NO donor (24 h pretreatment of spores) then miconazole

SMILES | checkerboard classification [1] | ∑FIC [1] | checkerboard classification [2] | ∑FIC [2] | checkerboard classification [3] | ∑FIC [3] | checkerboard classification [4] | ∑FIC [4] | checkerboard classification [5] | ∑FIC [5] | checkerboard classification [6] | ∑FIC [6]
NCCCN(CCCN)/[N+]([O-])=N/O [DPTA/NO, bis(3-aminopropyl) amine/NO] | I (indifferent (I)) | ≥ 1 | I (indifferent (I)) | ≥ 1 | I (indifferent (I)) | ≥ 1 | I (indifferent (I)) | ≥ 1 | I (indifferent (I)) | ≥ 1 | I (indifferent (I)) | ≥ 1
NCCN(CCN)/[N+]([O-])=N/O [DETA/NO, diethylenetriamine/NO] | I (indifferent (I)) | ≥ 1 | I (indifferent (I)) | ≥ 1 | – | – | I (indifferent (I)) | ≥ 1 | I (indifferent (I)) | ≥ 1 | I (indifferent (I)) | ≥ 1
NCCCNCCCCN(CCCN)/[N+]([O-])=N/O [SPER/NO, spermine/NO] | I (indifferent (I)) | ≥ 1 | I (indifferent (I)) | ≥ 1 | I (indifferent (I)) | ≥ 1 | I (indifferent (I)) | ≥ 1 | I (indifferent (I)) | ≥ 1 | I (indifferent (I)) | ≥ 1
